The test system of this assay is L1210 leukemia ip in BDF1 mice, survival T/C. Description: NCI In Vivo Anticancer Drug Screen. Data for tumor model L1210 Leukemia (intraperitoneal) in B6D2F1 (BDF1) mice. To be noted: higher = longer survival.

T/C data for two molecules are collected here from PubChem BioAssay AID248 (DTP/NCI, 2004).

Toxic doses and inconclusive results are not listed. For part of its entries the source gives two or more results. This list holds those alone. There may be further records. The values listed for one entry differ for a reason that is not stated; dose, time, organism, isomer or construct need not be as stated for each record.

Consider `N=c1ccn2c(n1)OC1C(O)C(CO)OC12` (configuration not stated), for which the T/C (endpoint: median survival time, dose: 200.0 mg/kg/injection, schedule: Q03HX024 (ip), vehicle: water) was 120 % of control and 600 % of control.

With `COc1ccc(Cl)cc1NC(=O)N(CCCl)N=O`, the T/C (endpoint: mean survival time, dose: 60.0 mg/kg/injection, schedule: Q01DX001 (ip), vehicle: carboxymethylcellulose (CMC)) is 103 % of control and 165 % of control.
